Test results published in the supplement of paper PMC11417369.
± gives the standard deviation of the averaged measurements. The list shows a part of the results.

System: PfAP2-LT AP2 domain (GST-tagged)
Assay: gcPBM binding intensity (ln(normalized median fluorescence intensity)); higher = stronger DNA binding
In short: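 Using an Agilent 4 × 180k array, primer-extended double-stranded 36-bp intergenic genomic probes and negative controls were exposed for 1 h to GST-fused P. falciparum DNA-binding domains expressed in E. coli. Binding was carried out in 1× PBS with 1% milk, 0.2 mg/ml BSA, 0.5% salmon testes DNA and 0.03% Triton X-100, and protein was detected with Alexa488 anti-GST antibody and a 488 nm scan. Binding intensity is the highest Masliner-normalised natural-log median intensity across replicate spots of either probe orientation.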

Q: For “AATAAAGAAGAAGAAAGTACACATTTCACAAAGGGG [XGTACX_site1308]”, which “gcPBM binding intensity (ln)” value is on record?
A: 9.1 ± 0.33

Q: Which “gcPBM binding intensity (ln)” value does the source give for “ATAAAATATAGGTATGCACACACATATACTTCTGTG [CACACA_site8398]” here?
A: 9.49 ± 0.45

Q: With “AAGGTATGATTAATCACACACATAAATATAAATACA [CACACA_site5464]” as the sequence, how does the “gcPBM binding intensity (ln)” value read?
A: 9.27 ± 0.56

Q: For “AAGCTTCATTAATATACACACATATATGTGTATATT [CACACA_site7693]”, which “gcPBM binding intensity (ln)” value is on record?
A: 9.27 ± 0.23

Q: Which “gcPBM binding intensity (ln)” value does the source give for “GTTAGTTTTAGTTCATGTACATAATAGAAAATATAT [XGTACX_site7125]” here?
A: 8.68 ± 0.33

Q: “TATATAATACGAATTTGTACATATTAAATAAATTAT [XGTACX_site93]” was tested. Which “gcPBM binding intensity (ln)” value did it give?
A: 8.59 ± 0.52

Q: How did the “gcPBM binding intensity (ln)” value turn out when “AATGAATGTACATACGCATGTACTTGACTAAATTAT [TGCATGCA_site436]” was run?
A: 9.05 ± 0.38

Q: Which “gcPBM binding intensity (ln)” value does the source give for “AAACTATACCAAAACACACATACAAAATATAAAAAA [CACACA_site2707]” here?
A: 9.21 ± 0.47

Q: “ATTTTCAAATTATCAGATGAATCTTTTTAAGATCTT [XGTACX_negctrl_site598]” was tested. Which “gcPBM binding intensity (ln)” value did it give?
A: 8.34 ± 0.5

Q: How did the “gcPBM binding intensity (ln)” value turn out when “CTCATATATAACACATGTACACAGATTTTGCAAATG [XGTACX_site6879]” was run?
A: 8.95 ± 0.37

Q: For “GGGAAAAAATGAGGTCGTACATTTTTCATCACAAAT [XGTACX_site8920]”, which “gcPBM binding intensity (ln)” value is on record?
A: 8.8 ± 0.46

Q: With “TTTTTTTTTTTTTTTTTACACACTGCATACAAGAAA [CACACA_site3026]” as the sequence, how does the “gcPBM binding intensity (ln)” value read?
A: 8.56 ± 0.45

Q: With “GTCTGCATATGGATACGTACACATATATATTAATGT [XGTACX_site2260]” as the sequence, how does the “gcPBM binding intensity (ln)” value read?
A: 9.25 ± 0.35

Q: With “TAATATATTATAAACACATGCACATTAATAATAACT [TGCATGCA_site708]” as the sequence, how does the “gcPBM binding intensity (ln)” value read?
A: 8.81 ± 0.47

Q: “TATTTTTTAAAAAAACGTACAAACATAATAAAAATA [XGTACX_site1857]” was tested. Which “gcPBM binding intensity (ln)” value did it give?
A: 8.6 ± 0.42

Q: For “ACATAAATATATTTTTCACACATCATTAGTTATGAA [CACACA_site4724]”, which “gcPBM binding intensity (ln)” value is on record?
A: 8.69 ± 0.35

Q: ATATGAAACATGAAGGTGCATAATGTGTATATTTAT was tested. Which “gcPBM binding intensity (ln)” value did it give?
A: 9.18 ± 0.45

Q: “ATAGACATTTTACTTTGTACATATAAACATATATAT [XGTACX_site2733]” was tested. Which “gcPBM binding intensity (ln)” value did it give?
A: 8.89 ± 0.48

Q: Which “gcPBM binding intensity (ln)” value does the source give for TATATATATATATATGTGCACATTTTATTAAAATGT here?
A: 9.63 ± 0.24

Q: ATAAATAAAACAACAGTGCAATAAAATTAGTTGAGG was tested. Which “gcPBM binding intensity (ln)” value did it give?
A: 9.07 ± 0.54

Q: How did the “gcPBM binding intensity (ln)” value turn out when “TGGTAATACCCATACACACACACATACCCATATATA [CACACA_site5509]” was run?
A: 9.76 ± 0.33

Q: For “TTTTTTATGAGGTGGTGTACTTTTTTTTTTTTCTTT [XGTACX_site8550]”, which “gcPBM binding intensity (ln)” value is on record?
A: 9.04 ± 0.42

Q: Which “gcPBM binding intensity (ln)” value does the source give for “CAAGAAACAGTGATACGTACACATATATATATATAT [XGTACX_site3229]” here?
A: 9.99 ± 0.46

Q: For “ATTAAAGAGAGACATCAACACACATACGTATGTATA [CACACA_site8393]”, which “gcPBM binding intensity (ln)” value is on record?
A: 8.97 ± 0.4

Q: For TTCAAATAAATAGTAGTGCATATTTATTAATGTAAA, which “gcPBM binding intensity (ln)” value is on record?
A: 8.58 ± 0.51

Q: “ATATATATATATACATGTACATATATACATTATATT [XGTACX_site936]” was tested. Which “gcPBM binding intensity (ln)” value did it give?
A: 9.45 ± 0.11

Q: How did the “gcPBM binding intensity (ln)” value turn out when “TTTTTTTTTTGTAATACACACCACTATATGTTATTT [CACACA_site5087]” was run?
A: 9.04 ± 0.54

Q: “AAACATTTAAATGGAAACACAGAAAAATGAAAAATG [CACACA_negctrl_site457]” was tested. Which “gcPBM binding intensity (ln)” value did it give?
A: 8.93 ± 0.53

Q: Which “gcPBM binding intensity (ln)” value does the source give for “TAAAAAATAAAATACACACACATATTTATATTTATA [CACACA_site6737]” here?
A: 9.22 ± 0.35

Q: “AAAAAAAAAAAAAACATACACACAAGAACAAAATAT [CACACA_site3003]” was tested. Which “gcPBM binding intensity (ln)” value did it give?
A: 9.22 ± 0.38

Q: How did the “gcPBM binding intensity (ln)” value turn out when “CAACAACATTTTTCATGTACATATATTTTATAATAT [XGTACX_site519]” was run?
A: 8.71 ± 0.44

Q: With “ATGTTATATTTTTTTATACACACTGGAATATATAAA [CACACA_site215]” as the sequence, how does the “gcPBM binding intensity (ln)” value read?
A: 8.64 ± 0.34

Q: Which “gcPBM binding intensity (ln)” value does the source give for “TATATATATATATATTGTACTTTATTTTATATATTC [XGTACX_site5697]” here?
A: 9.22 ± 0.32

Q: Which “gcPBM binding intensity (ln)” value does the source give for “ATTTATAATGAGTATACACACATATATAGATTTGCT [CACACA_site4517]” here?
A: 9.02 ± 0.38

Q: Which “gcPBM binding intensity (ln)” value does the source give for “ATTATTATTGTCAAATGTACAAGCTAATAATTTTTA [XGTACX_site7167]” here?
A: 8.39 ± 0.4

Q: Which “gcPBM binding intensity (ln)” value does the source give for “AAAAAAAAAAAAAAAACACACATATATGTATATATA [CACACA_site3276]” here?
A: 8.92 ± 0.35

Q: Which “gcPBM binding intensity (ln)” value does the source give for “CAATTACGCAGGAATGCACACAATAATAAAAAAAAT [CACACA_site3513]” here?
A: 9.18 ± 0.59

Q: Which “gcPBM binding intensity (ln)” value does the source give for “AAAAAAAAAAAAAACACACACACACCCAAATACATA [CACACA_site708]” here?
A: 9.99 ± 0.24

Q: For “TTTTTTCTTTTCAAGGTGCTTTATAAGAAAAAGGGA [GTGCAC_site9858]”, which “gcPBM binding intensity (ln)” value is on record?
A: 7.93 ± 0.33

Q: For “TATTTTATCATTTGCACACGCACACCCACATAAAAA [CACACA_site354]”, which “gcPBM binding intensity (ln)” value is on record?
A: 9.4 ± 0.16

Q: “TATATTAAAACAAGCACACAATCGCATAATATCCTT [CACACA_site3210]” was tested. Which “gcPBM binding intensity (ln)” value did it give?
A: 9.02 ± 0.36

Q: With “AGTATTATATTTTCTTGTACACATGTAAAATACCTC [XGTACX_site1359]” as the sequence, how does the “gcPBM binding intensity (ln)” value read?
A: 8.91 ± 0.45

Q: With “TATTATTCAAATAAAAGAAAAATATATATATTATAT [GTGCAC_negctrl_site273]” as the sequence, how does the “gcPBM binding intensity (ln)” value read?
A: 8.38 ± 0.39

Q: “ATATGTTACTTTACATAAAGAAGAAGAAGAAGAAAA [CACACA_negctrl_site985]” was tested. Which “gcPBM binding intensity (ln)” value did it give?
A: 8.68 ± 0.4

Q: For “TTTCAAAAAGGAAGAAAAAAAAAAAAAAAAAATATA [XGTACX_negctrl_site514]”, which “gcPBM binding intensity (ln)” value is on record?
A: 8.23 ± 0.53
